# From paper PMC6005513
# Positions count from the first letter of the chain named. These are yes or no findings as the source states them, for the method shown. Some binding calls cover weakened binding; strength is not graded here.
# Experiments:
# Test in all cases: binding of fluorescently labelled peptide to transfected cells, plate fluorescence scan; 10 nM myr-preS1-Al633 peptide in DMEM, 20 min, 37°C, on NTCP/Ntcp-transfected HEK293 cells in 24-well plates; washed with DMEM 2 min at 37°C; plates scanned at room temperature (Typhoon FLA 7000, 633 nm), total signal per area; only the binder purified
# [1] = biological target: T1, Callithrix jacchus (common marmoset) Ntcp G158R (Callithrix jacchus) (UniProt F7HA36)
# T1 sequence: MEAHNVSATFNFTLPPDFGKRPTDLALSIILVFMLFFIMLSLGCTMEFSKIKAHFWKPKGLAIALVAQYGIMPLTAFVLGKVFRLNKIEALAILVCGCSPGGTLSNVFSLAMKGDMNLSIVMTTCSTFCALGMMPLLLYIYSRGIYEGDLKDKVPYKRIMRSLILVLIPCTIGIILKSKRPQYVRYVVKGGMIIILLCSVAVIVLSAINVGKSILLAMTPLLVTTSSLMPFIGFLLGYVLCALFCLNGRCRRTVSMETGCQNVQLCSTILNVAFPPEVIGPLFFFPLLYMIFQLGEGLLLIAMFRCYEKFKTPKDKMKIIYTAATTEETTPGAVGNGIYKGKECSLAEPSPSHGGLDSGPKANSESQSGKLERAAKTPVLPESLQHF
# [2] = biological target: T2, Callithrix jacchus (common marmoset) Ntcp, wild type (Callithrix jacchus) (UniProt F7HA36)
# T2 sequence: T1 sequence with R158G
# [3] = biological target: T3, Saguinus oedipus (cotton-top tamarin) Ntcp S158G (Saguinus oedipus)
# T3 sequence: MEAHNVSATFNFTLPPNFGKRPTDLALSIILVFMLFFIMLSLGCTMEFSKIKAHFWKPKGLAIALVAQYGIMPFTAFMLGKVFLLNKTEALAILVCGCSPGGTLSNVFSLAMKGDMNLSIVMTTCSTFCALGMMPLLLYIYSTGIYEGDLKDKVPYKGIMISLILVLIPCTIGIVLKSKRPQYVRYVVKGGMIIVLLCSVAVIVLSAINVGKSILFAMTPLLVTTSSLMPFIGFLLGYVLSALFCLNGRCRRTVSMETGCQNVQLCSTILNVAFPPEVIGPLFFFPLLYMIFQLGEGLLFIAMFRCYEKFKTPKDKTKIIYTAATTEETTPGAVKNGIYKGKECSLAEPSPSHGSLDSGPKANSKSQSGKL
# [4] = biological target: T4, Macaca silenus (lion-tailed macaque) Ntcp R158G (Macaca silenus)
# T4 sequence: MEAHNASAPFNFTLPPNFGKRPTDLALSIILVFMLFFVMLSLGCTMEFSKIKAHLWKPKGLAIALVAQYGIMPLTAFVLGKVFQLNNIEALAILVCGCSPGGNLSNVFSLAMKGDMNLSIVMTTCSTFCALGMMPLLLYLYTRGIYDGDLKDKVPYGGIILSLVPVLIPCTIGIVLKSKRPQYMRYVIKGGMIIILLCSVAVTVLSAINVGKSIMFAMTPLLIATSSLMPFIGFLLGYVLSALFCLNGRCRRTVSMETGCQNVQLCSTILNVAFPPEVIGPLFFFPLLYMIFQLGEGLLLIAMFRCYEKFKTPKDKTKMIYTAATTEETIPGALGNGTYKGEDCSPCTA
# [5] = biological target: orangutan (Pongo abelii) Ntcp, wild type (orangutan (Pongo abelii)) (UniProt Q14973)
# [6] = biological target: T5, Macaca mulatta (rhesus macaque) Ntcp, wild type (Macaca mulatta)
# T5 sequence: T4 sequence with G158R
substance,measurement,setting,value
HBV myr-preS1-Al633-peptide (from UniProt P03138 2-48),binding,[1],no binding (tested: 10 nM)
same,binding,[2],binds
same,binding,[3],binds
same,binding,[4],binds
same,binding,[5],binds
same,binding,[6],no binding (tested: 10 nM)
